The values that follow come from patent US20250179151A1, “SPIKE FURIN CLEAVAGE IS A SARS-COV-2 TARGETING STRATEGY TO BREAK THE CHAIN OF INFECTION CYCLE” (University of Virginia Patent Foundation, priority 2022, published 2025).

Entries after “also recorded” stand apart in the source; their conditions may differ.

The test system of one experiment is spike cleavage at S1/S2. The class given is cell-based, SARS-CoV-2.
Another experiment deals with 293-ACE2 cells. It counts as cell-based. To be noted: spike transfected 293-ACE2 cells, 24 hours.

B1: 6.30-IgG1: ACE-2-RBD neutralizing antibody (Rogers et al., 2020); SEQ ID NOs: 20 and 23 (protein)
light: DIQMTQSPSSLSASVGDRVTITCRASQNISSYLNWYQQEAGKAPKLLIYAASSLQSGVPSRFSGSGSGTDFTLTISSLQPEDFATYYCQQSYSTPRTFGQGTKVDIKRTVAAPSVFIFPPSDEQLKSGTASVVCLLNNFYPREAKVQWKVDNALQSGNSQESVTEQDSKDSTYSLSSTLTLSKADYEKHKVYACEVTHQGLSSPVTKSFNRGEC
heavy: QVQLVQSGAEVKKPGSSVKVSCKASGGTFSIYAITWVRQAPGQGLEWMGGIIPIIGTANYAQKFQGRVTITADKSTSTAYMELSSLRSEDTAVYYCARDFRYCSSTRCYFWFDPWGQGTLVTVSSASTKGPSVFPLAPSSKSTSGGTAALGCLVKDYFPEPVTVSWNSGALTSGVHTFPAVLQSSGLYSLSSVVTVPSSSLGTQTYICNVNHKPSNTKVDKKVEPKSCDKTHTCPPCPAPEAAGGPSVFLFPPKPKDTLMISRTPEVTCVVVDVSHEDPEVKFNWYVDGVEVHNAKTKPREEQYNSTYRVVSVLTVLHQDWLNGKEYKCKVSNKALPAPIEKTISKAKGQPREPQVYTLPPSREEMTKNQVSLTCLVKGFYPSDIAVEWESNGQPENNYKTTPPVLDSDGSFFLYSKLTVDKSRWQQGNVFSCSVMHEALHNHYTQKSLSLSLGK
On to B1, for which the “inhibition of spike cleavage at S1/S2” value with spike cleavage at S1/S2 was “non-inhibitory”. Also, in the experiment on 293-ACE2 cells, the syncytia blockade result is reported as “significantly more effective; also recorded: significantly effective”.
